The structures appear in SMILES notation. Toxic doses and inconclusive results are not listed. A number of entries come with more than one value. They are shown here; other results are not. An entry can have further records. The values listed for one entry are repeated measurements (runs, samples, wells, individuals or studies). Marks such as (2×) give the number of equal values in this list.

For this assay, the system named is P388 leukemia ip, CD2F1 mice, survival T/C. Briefly: NCI In Vivo Anticancer Drug Screen. Data for tumor model P388 Leukemia (intraperitoneal) in CD2F1 (CDF1) mice. Conditions: endpoint: median survival time, higher = longer survival.
Setting [1] is: dose: 50.0 mg/kg/injection, schedule: Q01DX005 (ip), vehicle: Klucel (hydroxypropylcellulose) (HPC).
Setting [2] is: dose: 0.12 mg/kg/injection, schedule: Q01DX009 (ip), vehicle: water.
[3] abbreviates: dose: 0.5 mg/kg/injection, schedule: Q01DX009 (ip), vehicle: water.

`C[CH2][Sn]([F])([CH2]C)[CH2]C`: under “dose: 3.0 mg/kg/injection, schedule: Q01DX009 (ip), vehicle: saline with Tween-80”, the T/C was 107 % of control and 164 % of control. For the molecule `OC(CCl)CN1CCN(CC(O)CCl)CC1` (centres undefined), the T/C (dose: 50.0 mg/kg/injection, schedule: Q01DX005 (ip), vehicle: water) was 96 % of control and 179 % of control. For the molecule `CC1CN=C(CCc2ccc(NC(=O)c3ccc(C(=O)Nc4ccc(CCC5=NCC(C)N5)cc4)cc3)cc2)N1` (centres undefined), the T/C by setting is: under setting [1], 114 % of control and 150 % of control (2×); (dose: 200.0 mg/kg/injection, schedule: Q01DX005 (ip), vehicle: Klucel (hydroxypropylcellulose) (HPC)) 97 % of control and 178 % of control. On to `C[n+]1c(-c2cccc(OCCOCCOc3cccc(-c4c5cc(N)ccc5c5ccc(N)cc5[n+]4C)c3)c2)c2cc(N)ccc2c2ccc(N)cc21`, for which, under “dose: 0.78 mg/kg/injection, schedule: Q01DX009 (ip), vehicle: water”, the T/C is 114 % of control and 151 % of control. Consider `CC1(C)N=C(N)N=C(N)N1c1cccc(CCC(=O)Nc2ccc(S(=O)(=O)F)cc2)c1`, for which the T/C (dose: 75.0 mg/kg/injection, schedule: Q01DX009 (ip), vehicle: saline with Tween-80) was 123 % of control and 179 % of control.

Turning to `CN(CCO)c1ccc([N+](=O)[O-])c2nonc12`, the T/C (dose: 200.0 mg/kg/injection, schedule: Q04DX002 (ip), vehicle: saline) is 100 % of control (2×) and 154 % of control. With `CCN(CC)Cc1cc(N=Nc2cc(OC)c(N=Nc3ccc([N+](=O)[O-])cc3)cc2OC)c2ccccc2c1O`, where the note is “dose: 200.0 mg/kg/injection, schedule: Q01DX009 (ip), vehicle: Klucel (hydroxypropylcellulose) (HPC)”, the T/C was 98 % of control, 100 % of control, 162 % of control. Take `CCC1(O)CC2CN(CCc3c([nH]c4ccccc34)C(C(=O)OC)(c3cc4c(cc3OC)N(C)C3C(O)(C(N)=O)C(O)C5(CC)C=CCN6CCC43C65)C2)C1` (centres undefined) (tested in a mixture with another compound): the T/C by setting is: under setting [2], 107 % of control and 158 % of control; (dose: 0.25 mg/kg/injection, schedule: Q01DX009 (ip), vehicle: water) 116 % of control and 167 % of control; under setting [3], 107 % of control and 172 % of control. Take `O=NNc1ccc(-c2ccccc2)cn1`: the T/C (dose: 3.12 mg/kg/injection, schedule: Q01DX009 (ip), vehicle: saline) was 119 % of control and 161 % of control.

Regarding `C=C(C)C(=O)N(C)C(C)C(=O)OC1CC(=O)N(C)c2cc(cc(OC)c2Cl)C(OC)C(C)=C/C=C/C(OC)C2(O)CC(OC(=O)N2)C(C)C2OC12C` (centres undefined), the T/C (dose: 4.0 micrograms/kg/injection, schedule: Q01DX009 (ip), vehicle: saline) was 120 % of control and 163 % of control; the T/C (dose: 16.0 micrograms/kg/injection, schedule: Q01DX009 (ip), vehicle: saline) was 120 % of control and 163 % of control.

Regarding `CCC1=C[C@H]2CN(CCc3c([nH]c4ccccc34)[C@@](C(=O)OC)(c3cc4c(cc3OC)N(C)[C@H]3[C@@](O)(C(=O)OC)[C@H](OC(C)=O)[C@]5(CC)C=CCN6CC[C@]43[C@@H]65)C2)C1`, the T/C (dose: 4.0 mg/kg/injection, schedule: Q01DX009 (ip), vehicle: water) was 88 % of control and 163 % of control. `CCC1=C[C@H]2CN(CCc3c([nH]c4ccccc34)[C@@](C(=O)OC)(c3cc4c(cc3OC)N(C=O)[C@H]3[C@@](O)(C(=O)OC)[C@H](OC(C)=O)[C@]5(CC)C=CCN6CC[C@]43[C@@H]65)C2)C1`: for the setting “dose: 1.0 mg/kg/injection, schedule: Q01DX001 (ip), vehicle: water”, the T/C was 115 % of control and 159 % of control.

For `CC(C)Sc1nc(NC(=O)N(CCCl)N=O)cc(=O)[nH]1`, the T/C under setting [1] was 105 % of control and 158 % of control. As for `CN(C)CCNc1ccc(CO)c2sc3ccccc3c(=O)c12`, for the setting “dose: 100.0 mg/kg/injection, schedule: Q01DX005 (ip), vehicle: saline with Tween-80”, the T/C is 109 % of control and 150 % of control. Turning to `O=CNC(Cc1ccc(O)cc1)C(=O)O` (centres undefined), the T/C under setting [1] is reported as 102 % of control, 105 % of control, 152 % of control. As to `CCC1=C[C@H]2CN(CCc3c([nH]c4ccccc34)[C@@](C(=O)OC)(c3cc4c(cc3OC)N(C)[C@H]3[C@@](O)(C(=O)NC)[C@H](OC(C)=O)[C@]5(CC)C=CCN6CC[C@]43[C@@H]65)C2)C1`, the T/C under setting [2] is recorded as 123 % of control, 169 % of control, 178 % of control; the T/C under setting [3] was 100 % of control and 169 % of control. On to `CN1NC(c2ccccc2)=C(C#N)C(=O)CC1c1ccc(Cl)cc1` (centres undefined), for which the T/C (dose: 30.0 mg/kg/injection, schedule: Q01DX005 (ip), vehicle: saline with Tween-80) was 97 % of control and 163 % of control. For the molecule `O=C1c2ccccc2C(=O)c2c(NCCNCCO)ccc(NCCNCCO)c21`, where the note is “dose: 30.0 mg/kg/injection, schedule: Q01DX009 (ip), vehicle: saline”, the T/C is 109 % of control and 198 % of control. For the molecule `[C-]#[N+]C1CCCCC1.[C-]#[N+]C1CCCCC1.[C-]#[N+]C1CCCCC1.[C-]#[N+]C1CCCCC1.[C-]#[N+]C1CCCCC1.[C-]#[N+]C1CCCCC1.[Mn]`, the T/C (dose: 1.5 mg/kg/injection, schedule: Q01DX009 (ip), vehicle: saline with Tween-80) was 94 % of control and 176 % of control.

The values are drawn from PubChem BioAssay AID330 (DTP/NCI, 2004).
